Source: publication PMC7251095, “Cryo-EM structures provide insight into how E. coli F1Fo ATP synthase accommodates symmetry mismatch” (Nature Communications, 2020)

Columns and labels:
[1] = biological target: the molecule itself; assay: cryo-EM structure; detergent-solubilized (digitonin) cysteine free E. coli F1Fo ATP synthase at 11 μM with 10 mM MgADP, 22 °C for 30 s before freezing; 300 kV; nine sub-states and a Fo focused map of Sub-state 3A
[2] = biological target: T1, E. coli F1Fo ATP synthase subunit a (E. coli, UniProt P0AB98 1-271); assay: as above; conditions: both partners purified
T1 construct: ATP synthase subunit a of E. coli, as it stands in the cysteine free F1Fo ATP synthase (all cysteines of the enzyme substituted with alanine); The first four residues were not resolved in the maps; also called stator subunit a; Fo stator
T1 sequence (P0AB98 whole entry): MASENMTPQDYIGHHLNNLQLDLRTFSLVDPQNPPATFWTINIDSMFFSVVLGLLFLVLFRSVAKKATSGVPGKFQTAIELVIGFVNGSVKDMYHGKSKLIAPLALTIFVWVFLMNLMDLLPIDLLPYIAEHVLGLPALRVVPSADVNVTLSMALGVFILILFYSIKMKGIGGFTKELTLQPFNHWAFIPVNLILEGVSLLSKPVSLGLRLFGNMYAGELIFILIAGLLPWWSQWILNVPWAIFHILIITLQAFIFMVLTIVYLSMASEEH

B1: E. coli F1Fo ATP synthase subunit c (natural protein)
chain: MENLNMDLLYMAAAVMMGLAAIGAAIGIGILGGKFLEGAARQPDLIPLLRTQFFIVMGLVDAIPMIAVGLGLYVMFAVA
notes: ATP synthase subunit c of E. coli, as it stands in the cysteine free F1Fo ATP synthase (all cysteines of the enzyme substituted with alanine); Ten copies form the c-ring of the Fo motor; also called c-ring; c10 ring
Question: Which “stoichiometry N” value [1] does the source give for B1 here?
Answer: Its value is 10.

Question: Does B1 bind [2]?
Answer: Result: binds
